Results published in PubChem BioAssay AID1745845 (National Center for Advancing Translational Sciences (NCATS), 2022).
Screen size: about 360,000 compounds; about 2,600 (0.72%) were called active. Inconclusive results, whose numbers are uncertain, are shown with a selection of clear calls. The call rests on the fitted dose curve; in most records, active means well fitted inhibition curve with a large enough effect; inconclusive means small, poorly fitted or top-dose-only effect; inactive means no such curve, though single readings can be large or run the other way. A potency beside an inconclusive call is a rough fit, not a confirmed value.

assay: Primary qHTS for Inhibitors of ATXN expression; conditions: HEK-293 ATXN2-luciferase reporter, luminescence, 24 h; activity change, negative = inhibition: at 57 µM (top of the series); further: nearly all actives have a fitted effect of over 55% in size
In short: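 ATXN2-luciferase reporter cells (luciferase flanked by upstream and downstream ATXN2 gene portions) were treated 24 h at 37 °C with compounds at up to 57 uM. SteadyGlo luminescence gave expression; GF-AFC fluorescence gave viability.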
On the % scale 0 is the no-effect control and ±100 the full control effect; potency means the concentration at half of the fitted maximal effect; tags describe the fitted curve by direction and shape.

Structure (SMILES) | Potency | activity change, negative = inhibition
CN(CCOc1ccccc1)C(=O)c1ccc(OC2CCN(C(=O)C3CC3)CC2)cc1 | inconclusive: 20 µM [inhibitor, partial curve, poor fit] | –
CCCC(=O)NC(c1ccc2c(c1)OCO2)c1cc(Cl)c2cccnc2c1O (centres undefined) | active: 8.91 µM | –
NC(c1ccccc1)c1csc(NC(=O)Nc2cccc(C(F)(F)F)c2)n1 (centres undefined) | inconclusive: 25.1 µM [inhibitor, single point] | –
Cc1nc(N2CCN(Cc3ccc4c(c3)OCO4)CC2)c2oc3ccccc3c2n1 | inconclusive: 25.1 µM [inhibitor, single point] | –
COc1ccc2[nH]c(C)c(CCNC(=S)Nc3cccc(C)c3C)c2c1 | inconclusive: 28.2 µM [inhibitor, partial curve, poor fit] | –
NC1=C(Br)C(=O)c2ccccc2C1=O | inconclusive: 31.6 µM [inhibitor, partial curve, poor fit] | –
CC(C)[C@H](N)C(=O)OCCOCn1cnc2c(=O)[nH]c(N)nc21 | inactive | –
CCc1ccc(Nc2nc(N)nc(CSc3nnnn3-c3ccccc3)n2)cc1 | inconclusive: 39.8 µM [inhibitor, single point] | –
COc1cnc(-c2ccccn2)nc1Sc1ccc(Cl)cc1 | inconclusive: 31.6 µM [inhibitor, single point] | –
Cc1cc(C)c(C(=O)CC(=O)c2ccccc2Cl)c(O)c1 | inconclusive: 37.7 µM [inhibitor, single point] | –
O=C(c1ccc2c(c1)OCCO2)N1CCCC(CNS(=O)(=O)c2cccs2)C1 (centres undefined) | inconclusive: 1.89 µM [inhibitor, partial curve, poor fit] | –
COc1ccc(NC(=O)CCNS(=O)(=O)c2ccccc2F)cc1S(N)(=O)=O | – | inactive: 23.9%
O=C(CSc1cccc[n+]1[O-])c1ccccc1Br | – | inactive: -18.2%
CC(C)(C)OC(=O)[C@H](Cc1ccccc1)NC(=O)c1[nH]cnc1C(=O)Nc1ccccc1F | inconclusive: 39.8 µM [inhibitor, single point] | –
Cc1cc2nc(C3CCCN(C(=S)Nc4ccccc4C)C3)[nH]c2cc1C (centres undefined) | – | inactive: -8.81%
CC(C)(C)C(=O)Nc1sc2c(c1C#N)CCN(Cc1ccccc1)C2 | – | inactive: 2.56%
N#CCCn1c(=S)[nH]c2ccccc21 | – | inactive: -1.25%
COc1ccc(C(c2nnnn2CCc2ccccc2)N2CCN(C3CCCC3)CC2)cc1 (centres undefined) | – | inactive: -4.98%
COc1ccc(C(=O)N/N=C/c2ccc3cccc(O)c3n2)cc1 | – | inactive: -25.4%
Oc1ccc(Nc2nc(N3CCCC3)c3ccccc3n2)cc1 | inconclusive: 39.8 µM [inhibitor, single point] | –
Cc1ccc(Cl)cc1N1CCN(CC(=O)Nc2ccc3[nH]c(=O)[nH]c3c2)CC1 | inconclusive: 39.8 µM [inhibitor, partial curve, poor fit] | –
Cc1ccc(C)c(S(=O)(=O)c2cn(Cc3ccccc3)c3cc(F)c(F)cc3c2=O)c1 | – | inactive: 2.56%

Structure (SMILES) | Potency | activity change, negative = inhibition
CC1CCN(c2oc(-c3cccs3)nc2S(=O)(=O)c2ccc(Cl)cc2)CC1 | – | inactive: -7.54%
Cc1cc(C)nc(/N=C(\N)Nc2ccc(-c3ccccc3)cc2)n1 | inconclusive: 29.9 µM [inhibitor, single point] | –
O=C(NCCc1ccccc1)c1cccc2c(-c3cccnc3)coc12 | – | inactive: 2.19%
CC1=CC2=NC(=O)/C(=C\c3cccn3CCOc3ccccc3C)C(=N)N2O1 | inconclusive: 10 µM [inhibitor, partial curve] | –
CCCCn1c(-c2ccccc2C)nc2cc3[nH]c(=O)c(C(C)C)nc3cc21 | – | inactive: -32.4%
O=C(CCl)Nc1cccc(S(=O)(=O)N2CCCCCC2)c1 | inconclusive: 39.8 µM [inhibitor, single point] | –
COc1ccc(C=O)cc1C1=CC(=O)C[C@H](c2ccc(Cl)cc2)C1 | inconclusive: 25.1 µM [inhibitor, single point] | –
O=C1c2cccc(OCc3ccc(F)cc3)c2CCN1Cc1ccc(F)cc1 | inconclusive: 28.2 µM [inhibitor, single point] | –
Cc1ccc2c(c1)-c1c(ssc1=S)C(C)(C)N2C(=O)c1ccco1 | inconclusive: 15.8 µM [inhibitor, partial curve, poor fit] | –
COc1ccc(OC)c(CNC(=O)c2cc3c(-c4ccc(OC)c(OC)c4)nn(C)c3s2)c1 | – | inactive: -0.255%
COCCN1CCN(c2cc(-c3ccccc3)nc3cc(-c4cccc(F)c4)nn23)CC1 | inconclusive: 35.5 µM [inhibitor, single point] | –
COc1cccc(NC(=O)NCCCSC2CCCCC2)c1 | – | inactive: 2.69%
CCN(C(=O)COC(=O)CCOc1ccc(C(C)(C)C)cc1)c1c(N)n(Cc2ccccc2)c(=O)[nH]c1=O | inconclusive: 39.8 µM [inhibitor, single point] | –
COc1ccc(CNC(=O)Cn2c(SCC(=O)Nc3ccc(OC)cc3)nc3ccccc32)cc1 | inconclusive: 39.8 µM [inhibitor, single point] | –
CCOC(=O)c1ccc(N2C(=O)c3[nH]nc(-c4ccc(C)cc4)c3C2c2cccc(F)c2)cc1 (centres undefined) | inconclusive: 20 µM [inhibitor, single point] | –
CC(C)C(=O)NC(c1ccc([N+](=O)[O-])cc1)c1c(O)ccc2ccccc12 (centres undefined) | inconclusive: 31.6 µM [inhibitor, single point] | –
COc1cc([N+](=O)[O-])cc(/C=N/NC(=O)Cn2nccc2C)c1O | inconclusive: 39.8 µM [inhibitor, single point] | –
O=c1nccc(N/N=C/c2ccccc2O)[nH]1 | inconclusive: 1.58 µM [inhibitor, full curve, poor fit] | –
CCO[C@@H]1OC(C(=O)N2CCCCCCC2)=C[C@H](c2csc3ccccc23)[C@H]1CCCO | – | inactive: 4.49%
O=c1[nH]c2cc3ccccc3cc2nc1-c1nnnn1Cc1ccccc1 | – | inactive: -20.3%
C[C@]12CC[C@H](O)CC1=CCC1C2CC[C@]2(C)C(n3cnc4ccccc43)=CCC12 (some centres undefined) | inconclusive: 38.5 µM [inhibitor, single point] | –
CN(c1ccccc1)S(=O)(=O)c1cc(C(=O)Nc2nc3ccccc3[nH]2)ccc1Cl | inconclusive: 20 µM [inhibitor, single point] | –
